# Assay results from PubChem BioAssay AID743262 (National Center for Advancing Translational Sciences (NCATS), 2014).
# About 25 (2%) of roughly 1,300 compounds were called active. Not shown: some 9% with an inconclusive outcome. The call rests on the fitted dose curve; in most records, active means well fitted activation curve with a large enough effect; inconclusive means small, poorly fitted or top-dose-only effect; inactive means flat fitted curve, though single readings scatter. The list shows a part of the results.
# Target: Glucagon-like peptide 1 receptor (Homo sapiens) (UniProt P43220)
# UniProt P43220, sequence (P43220 whole entry, looked up): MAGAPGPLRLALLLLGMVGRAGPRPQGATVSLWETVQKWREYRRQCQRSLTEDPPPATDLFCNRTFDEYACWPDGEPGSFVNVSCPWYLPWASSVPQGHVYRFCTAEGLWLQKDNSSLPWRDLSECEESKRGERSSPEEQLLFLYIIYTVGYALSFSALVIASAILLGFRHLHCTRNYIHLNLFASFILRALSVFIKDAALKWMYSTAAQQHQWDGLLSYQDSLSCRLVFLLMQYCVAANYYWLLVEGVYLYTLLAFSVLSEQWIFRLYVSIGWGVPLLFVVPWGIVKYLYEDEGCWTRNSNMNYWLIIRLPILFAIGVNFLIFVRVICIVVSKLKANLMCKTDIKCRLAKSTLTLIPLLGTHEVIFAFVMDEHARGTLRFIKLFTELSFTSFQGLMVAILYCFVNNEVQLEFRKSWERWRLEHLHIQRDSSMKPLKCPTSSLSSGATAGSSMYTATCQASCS
# Assay: qHTS of GLP-1 Receptor Agonists: Hit Validation; on activation: % of control where 0% means no effect
# Settings: HEK293 GLP-1R, cAMP-response luciferase, 4-6 h; series mostly up to 46.1 µM; activation: at the top concentration
# How it was run: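 Luminescence from a cAMP-responsive luciferase reporter was read 12 min after detection reagent at RT. Before that, HEK293 cells stably expressing GLP-1R plus reporter, seeded 12 h earlier, were exposed to compound for 4-6 hr at 37 deg C.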
# Potency means the concentration at half of the fitted maximal effect.
SMILES,activation,Potency
COc1cc2cc(C)nc(Cc3cccc4ccccc34)c2cc1OC,inactive: 12.9%,–
CCOc1ccc(-n2c(C)nc3cc(C(=O)NCCN4CCOCC4)ccc32)cc1,inactive: -0.63%,–
O=[N+]([O-])c1ccc(N2CCNCC2)cc1NCc1cccnc1,inactive: 11.6%,–
CCCc1nc(N)c(C#N)c(N)c1C#N,inactive: 12.8%,–
CCSc1nc2cc(OC)c(OC)cc2c(=O)n1CC,inactive: 8.63%,–
CCCCCCSC1=C(C#N)C(c2ccc(O)cc2)CC(=O)N1 (stereo unspecified),inactive: -0.367%,–
COc1cc2c(cc1OC)CN(C(=O)COc1ccccc1C#N)CC2,inactive: 10.5%,–
O=C(O)CC1(CC(=O)Nc2ccc(C(F)(F)F)cc2)CCCC1,inactive: -1.63%,–
COc1cc2c(c3oc(-c4ccccc4)cc(=O)c13)C=CC(C)(C)O2,inactive: 14.1%,–
CCOc1cc(/C=C2/C(=O)ON=C2C)ccc1OCc1ccccc1F,inactive: -1.64%,–
CSc1ccc(CN2CCCC(CNC(=O)c3ccc(F)cc3)C2)cc1 (stereo unspecified),inactive: -0.442%,–
COc1cc2c(cc1OC)/C(=C/C#N)NC(C)(C)C2,inactive: 18.3%,–
O=C(c1ccccc1)n1c2ccccc2c(=O)n1-c1ccccc1CCl,inactive: -0.375%,–
COc1ccc(CCNc2oc(Cc3cccc4ccccc34)nc2C#N)cc1OC,inactive: 11.5%,–
Cc1cccc(OCCSc2cc(C)nc(N)n2)c1,inactive: 1.84%,–
COc1ccc(-c2cc(-c3ccc(O)cc3)nc(N)c2C#N)cc1OC,inactive: 20%,–
C=C(C)CSc1cc(C)nc2c(-c3ccccc3)c(C)nn12,inactive: 7.88%,–
Cc1ccc(CCNC(=O)C2CCC(=O)N(Cc3cccc(F)c3)C2)cc1 (stereo unspecified),inactive: -1.17%,–
Cc1c(C(=O)NCc2cccnc2)oc2ccc(S(=O)(=O)N3CCCCC3)cc12,inactive: 1.02%,–
COc1ccc(C(=O)COC(=O)c2cc([N+](=O)[O-])ccc2N2CCOCC2)c(OC)c1,–,active: 20.6 µM
CCc1nc(NCCCn2ccnc2)c2oc3ccccc3c2n1,inactive: 2.8%,–
O=C(Cn1nc(-c2ccc(N3CCOCC3)c([N+](=O)[O-])c2)c2ccccc2c1=O)N1CCCCC1,inactive: 20.3%,–
OC(c1ccccc1)c1nc(-c2csc3ccccc23)cs1 (stereo unspecified),–,active: 7.31 µM

SMILES,activation,Potency
COc1ccc(-c2nc(C#N)c(NCc3cccnc3)o2)cc1OC,inactive: 14.4%,–
COc1ccccc1N1CCN(C(=O)/C=C/c2ccco2)CC1,inactive: 2.92%,–
OCCNc1nc(-c2ccccc2)c2cc(Cl)ccc2n1,inactive: 15.5%,–
CCOc1ccc(-c2cc3nc(C4CCN(C(=O)OC(C)(C)C)CC4)c(C(=O)O)cn3n2)cc1,inactive: 15%,–
COc1ccc(-c2nc(C#N)c(NCc3ccc(F)cc3)o2)cc1OC,inactive: 24.3%,–
COc1ccc(C(=O)c2ccc(OC)c3cccc(O)c23)cc1OC,inactive: 3.47%,–
N#Cc1ccccc1CSc1nc2ccsc2c(=O)n1Cc1ccccn1,inactive: 3.3%,–
COc1cc(C(=O)N(Cc2cccnc2)Cc2cc3cc4c(cc3[nH]c2=O)OCCO4)cc(OC)c1OC,inactive: 1.89%,–
COc1ccc(C(C)=O)cc1COc1ccc([N+](=O)[O-])c(C)c1,inactive: 2.01%,–
O=C(Nc1cccnc1)c1cc2nc(C3CC3)cc(C(F)(F)F)n2n1,inactive: 2.01%,–
CCN(CC)C(=O)c1ccc(COc2ccccc2Cl)cc1,inactive: -0.201%,–
COc1ccc(COC(=O)c2cccc(S(=O)(=O)N3CCN(C(C)=O)CC3)c2)cc1F,inactive: -0.378%,–
O=C(NCc1ccccn1)Nc1ccc2c(c1)OCO2,inactive: -0.911%,–
N/C(=N\OC(=O)c1ccc2ccccc2c1)c1ccccc1Cl,inactive: 11.2%,–
COC(=O)c1sc(NC(=O)CSc2nc3cccnc3n2C)nc1C,inactive: -1.18%,–
Cc1ccc(C)c(S(=O)(=O)Nc2cc3c4c(c2)CCC(=O)N4CCC3)c1,inactive: 4.82%,–
O=C(NCC1CCCN(Cc2nccs2)C1)c1cccc2ccccc12 (stereo unspecified),inactive: -0.55%,–
COc1cccc(Nc2nc(N)nc(C(F)(F)F)n2)c1,inactive: 5.74%,–
COC(=O)c1c(NC(=O)C2=COCCO2)sc(C)c1C,inactive: 1.3%,–
CCN(CC(=O)Nc1ccc(OC)c(OC)c1)CC(=O)Nc1ccccc1C(F)(F)F,inactive: 1.95%,–
O=C(NCc1ccccc1Cl)c1ccccc1Oc1ccccc1,inactive: 4.67%,–
COc1ccc(-n2nc(C(=O)NCC(=O)Nc3cc(OC)c(OC)c(OC)c3)c3ccccc3c2=O)cc1,inactive: 0.214%,–
CCN(CC(O)c1cccc(O)c1)C(=O)C12CC3CC(CC(C3)C1)C2 (stereo unspecified),inactive: 26%,–

SMILES,activation,Potency
Cc1ccc(NC(=S)NCCc2ccccc2)nc1,inactive: 3.32%,–
Cc1ccc(C)c(COC(=O)c2cc([N+](=O)[O-])ccc2N2CCOCC2)c1,inactive: 14.6%,–
CCCCCCCOc1ccc(C2CC(=O)N(C)C2=O)cc1 (stereo unspecified),inactive: 3.7%,–
CCOC(=O)c1c(C)c(C(=O)Nc2cc(OC)ccc2OC)c(C)n1CC,inactive: 18%,–
N#Cc1c(NCCCO)nc(-c2ccccc2)c2c1CCCC2,inactive: 10.7%,–
Clc1cccc(-c2nc3ccc(Cl)cn3c2Cc2ccccc2)c1,inactive: 3.18%,–
CN(C)CCc1c[nH]c2ccc(CS(=O)(=O)N3CCCC3)cc12,inactive: -0.692%,–
COc1ccc(/C=N/NC(=O)c2cc3c(OC)ccc(OC)c3[nH]2)cc1O,inactive: 23%,–
COc1cc(SC)ccc1C(=O)OCc1nc2ccsc2c(=O)[nH]1,inactive: 3.67%,–
COc1cccc(N=c2oc3cc(O)ccc3cc2C(=O)NCC2CCCO2)c1 (stereo unspecified),inactive: 21.9%,–
COc1ccc(Nc2nnc(SC(C(=O)Nc3cc(C)ccc3C)c3ccccc3)s2)cc1 (stereo unspecified),inactive: -0.797%,–
Nc1ccc(Br)cc1C(=O)O,inactive: -0.955%,–
OC(c1ccccc1)c1nc(-c2ccccc2)cs1 (stereo unspecified),inactive: -0.205%,–
Cc1cc(C)n(CCCNCC(O)c2ccccc2)n1 (stereo unspecified),inactive: 23.8%,–
CCC1C(=O)CC(c2ccco2)NC1c1ccco1 (stereo unspecified),inactive: -0.709%,–
Cc1ccccc1OCCCCn1cnc2ccccc21,inactive: -0.482%,–
COc1ccc(-c2cc(=O)c3c(OC)c(OC)c(OC)c(OC)c3o2)cc1OC,inactive: 9.93%,–
CCCn1c(SCC(=O)N2CCCc3ccccc32)nc2c1c(=O)n(C)c(=O)n2C,inactive: 7.7%,–
O=C(CCN1C(=O)c2ccccc2C1=O)N(CCO)Cc1ccccc1,inactive: -1.28%,–
CCOC(=O)c1c(NC(=O)Cc2ccccc2)sc2c1CCN(CC)C2,inactive: 1.77%,–
Cc1cccc(Nc2nc(N)c([N+](=O)[O-])c(NCc3ccccc3)n2)c1,inactive: 17.5%,–
Cc1nc2c(c3c1[nH]c1ccccc13)C(=O)CC(C)(C)C2,inactive: 3.4%,–
CCOc1ccc(Cc2nccc3cc(OCC)c(OCC)cc23)cc1OCC,inactive: 27.8% [at 19.8 µM],–

SMILES,activation,Potency
Nc1nc(Nc2ccccc2)nc(NCc2ccccc2)c1[N+](=O)[O-],inactive: 18%,–
CCOC(=O)c1cc2c(=O)n3ccccc3nc2n(C(C)C)c1=NC(=O)c1ccncc1,inactive: 27.4%,–
CN(CC(=O)Nc1ccc(S(=O)(=O)N2CCCC2)cc1)Cc1ccc(Cl)cc1Cl,inactive: 3.21%,–
CC1CCCC(C)N1C(=O)c1ccc2c(c1)S(=O)(=O)c1ccccc1C2=O (stereo unspecified),inactive: 8.97%,–
O=C(NCc1ccco1)c1ccc(Cn2c(=O)c3sccc3n(Cc3cccc(F)c3)c2=O)cc1,inactive: 1.42%,–
Cc1ccc(Nc2c(-c3ccc(N4CCOCC4)cc3)nc3cnccn23)cc1,inactive: 10.3%,–
O=C(O)c1cccnc1,inactive: 1.83%,–
O=C(O)c1nn(CCOc2c(Cl)cccc2Cl)c(=O)c2ccccc12,inactive: 11.1%,–
CCOc1ncccc1C(=O)Nc1ccc(S(=O)(=O)Nc2nc(C)cc(C)n2)cc1,inactive: 6.22%,–
Cc1ccc(-n2ncc3c2ncn2nc(-c4ccco4)nc32)c(C)c1,inactive: 0.187%,–
CCN(Cc1cnn(C)c1)C(=O)CC1C(=O)NCCN1Cc1cccc(OC)c1OC (stereo unspecified),inactive: -0.803%,–
Cc1ccc(CNc2ncnc(N)c2[N+](=O)[O-])cc1,inactive: 1.93%,–
Cc1coc2c1c(C)cc1oc(=O)c(CC(=O)NCCCCCC(=O)O)c(C)c12,inactive: -0.676%,–
CCN(CC)S(=O)(=O)c1ccc2oc(C(=O)N3CCOCC3)c(C)c2c1,inactive: -0.33%,–
O=[N+]([O-])c1ccc2nonc2c1Nc1cccc(F)c1,inactive: 12%,–
CCOc1ccc(C(=O)Nc2ccncc2)cc1,inactive: -0.776%,–
COc1ccc(C(=O)N2CCCC(c3ccccc3)C2)cc1 (stereo unspecified),inactive: -0.361%,–
CC(CCc1ccco1)NC(=O)c1cccc2c1C(=O)N(C1CCCCC1)C2 (stereo unspecified),inactive: 6.34%,–
COc1ccc(C(C)=O)cc1COC(=O)c1ccc(C)c(S(=O)(=O)N2CCOCC2)c1,inactive: 5.7%,–
C=CCc1ccc(OCCOc2cccc3ccc(C)nc23)c(OC)c1,inactive: 4.18%,–
COc1ccc2c(c1)oc(=O)c1ccccc12,inactive: 6.5%,–
Cc1nc(N2CCN(c3ccccn3)CC2)c2c(C)c(C(=O)N3CCN(c4cccc(Cl)c4)CC3)sc2n1,inactive: 0.254%,–
O=C(OCCOc1ccccc1Cl)c1ccc(-n2cnnn2)cc1,inactive: 7.11%,–

SMILES,activation,Potency
FC(F)(F)c1cccc(N2CCc3cn[nH]c32)c1,inactive: 3.12%,–
COc1ccc(OC)c(NC(=O)C2(C)CCN2Cc2ccc(SC)cc2)c1 (stereo unspecified),inactive: 2.52%,–
CC(C)C(=O)c1c(C(C)C)nn2ccccc12,inactive: 4.75%,–
COc1ccc(-c2nnc(-c3cccnc3)o2)cc1OC,inactive: 2.98%,–
COc1ccc(N2C[C@H](CSC)[C@@H](CC(=O)Nc3ccccc3)C2=O)cc1,inactive: -0.4%,–
COc1ccc(C)cc1N(C(=O)c1snc(C(N)=O)c1N)C(C(=O)NC1CCCCC1)c1ccc(C)o1 (stereo unspecified),inactive: -0.356%,–
c1ccc(Oc2ncnc3sccc23)cc1,inactive: 2.76%,–
O=C(CCCl)Nc1nc2c(s1)CCc1ccccc1-2,inactive: 7.9%,–
Cc1ccccc1Cn1nc(C)c(NC(=O)/C=C/c2cnn(C)c2)c1C,inactive: -0.834%,–
c1csc(-c2ccc3ccccc3n2)c1,inactive: -0.411%,–
COCCNc1nc(Nc2ccc(C)cc2C)c2sccc2n1,–,active: 9.2 µM
Cc1cccc(Nc2nc3c(c(=O)n(C)c(=O)n3C)n2Cc2ccccc2)c1,inactive: 1.5%,–
CCOC(=O)c1sc2nc(N3CCOCC3)c3c(c2c1N)CCC3,inactive: 7.48%,–
O=C(CO)[C@@H](O)[C@H](O)[C@@H](O)C(=O)O,inactive: -0.423%,–
COc1cc2c(cc1OC)CN(c1ncccc1[N+](=O)[O-])CC2,inactive: 7.74%,–
O=[N+]([O-])c1cc(S(=O)(=O)C(F)(F)F)ccc1N1CCN(c2ccccc2)CC1,inactive: -0.414%,–
O=C(CSc1nnc(-c2ccccc2Br)o1)N1CCc2ccccc2C1,inactive: 3.85%,–
O=C(NCc1ccco1)c1cccc2c(-c3ccc(F)c(F)c3)coc12,inactive: 15.6%,–
Cc1c(/C=N\NC(=O)C2COc3ccccc3O2)c2ccccc2n1C (stereo unspecified),inactive: 14.8%,–
